From the supplement of paper PMC12217912
This is one part of the list. The full chains were built here from the parent and the listed change. Inactive controls read about 0.05.

B1: TEV protease; numbered along this chain (parent)
chain: MGESLFKGPRDYNPISSSICHLTNESDGHTTSLYGIGFGPFIITNKHLFRRNNGTLVVQSLHGVFKVKDTTTLQQHLVDGRDMIIIRMPKDFPPFPQKLKFREPQREERICLVTTNFQTKSMSSMVSDTSCTFPSGDGIFWKHWIQTKDGQCGSPLVSTRDGFIVGIHSASNFTNTNNYFTSVPKNFMELLTNQEAQQWVSGWRLNADSVLWGGHKVFMVKPEEPFQPVKEATQL

Variants of: B1
Test: raw area under fraction-flipped curve 0-4 h after induction (AUC4h, not background-subtracted), DNA-recorder readout of cleavage of the substrate (dimensionless); higher = more cleavage of the substrate by the protease variant
Conditions: temperature: 34 °C; time window: 0-4 h after rhamnose induction
Description: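 In vivo DNA recorder in E. coli TOP10(DE3) ΔrhaA at 34 °C. Each TEVp single-site mutant (parent TEVp 0) is paired with a single-site variant of the 7-mer TEVs (canonical ENLYFQ|S). The substrate sits between flexible linkers in a Bxb1-sfGFP-TEVs-SsrA fusion, so cleavage stabilises Bxb1 and speeds flipping of a recombination array, read by NGS. The value is the raw area under the fraction-flipped curve over 0-4 h after rhamnose induction (AUC4h), with ≥20 reads per time point. It is not background-subtracted; inactive controls average about 0.047.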
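Also: Bxb1 expression induced with 0.2% (w/v) L-rhamnose at OD600 near 0.5, cultures sampled hourly, flipped fraction per protease–substrate barcode pair counted by paired-end Illumina sequencing.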

Variant: MGESLFKGPRDYNPISSSICHLTNESDGHTTSLYGIGFGPFIITNKHLFRRNNGTLVVQSLHGVFKVKSTTTLQQHLVDGRDMIIIRMPKDFPPFPQKLKFREPQREERICLVTTNFQTKSMSSMVSDTSCTFPSGDGIFWKHWIQTKDGQCGSPLVSTRDGFIVGIHSASNFTNTNNYFTSVPKNFMELLTNQEAQQWVSGWRLNADSVLWGGHKVFMVKPEEPFQPVKEATQL [D69S]
- area with substrate ENLYFQA: 0.0757
- area with substrate ENLYFQC: 0.0858
- area with substrate ENLYFQD: 0.0683
- area with substrate ENLYFQF: 0.0768
- area with substrate ENLYFQG: 0.0977
- area with substrate ENLYFQH: 0.0671
- area with substrate ENLYFQI: 0.0489
- area with substrate ENLYFQK: 0.0544
- area with substrate ENLYFQL: 0.0578
- area with substrate ENLYFQM: 0.0918
- area with substrate ENLYFQN: 0.0612
- area with substrate ENLYFQQ: 0.0707
- area with substrate ENLYFQR: 0.0568
- area with substrate ENLYFQS: 0.0864
- area with substrate ENLYFQT: 0.0639
- area with substrate ENLYFQV: 0.0577
- area with substrate ENLYFQW: 0.0606
- area with substrate ENLYFQY: 0.0599

Variant: MGESLFKGPRDYNPISSSICHLTNESDGHTTSLYGIGFGPFIITNKHLFRRNNGTLVVQSLHGVFKVADTTTLQQHLVDGRDMIIIRMPKDFPPFPQKLKFREPQREERICLVTTNFQTKSMSSMVSDTSCTFPSGDGIFWKHWIQTKDGQCGSPLVSTRDGFIVGIHSASNFTNTNNYFTSVPKNFMELLTNQEAQQWVSGWRLNADSVLWGGHKVFMVKPEEPFQPVKEATQL [K68A]
- area with substrate ENLYFQA: 0.0831
- area with substrate ENLYFQC: 0.225
- area with substrate ENLYFQD: 0.0695
- area with substrate ENLYFQG: 0.0914
- area with substrate ENLYFQK: 0.0693
- area with substrate ENLYFQL: 0.0681
- area with substrate ENLYFQM: 0.09
- area with substrate ENLYFQP: 0.0427
- area with substrate ENLYFQQ: 0.118
- area with substrate ENLYFQR: 0.0771
- area with substrate ENLYFQS: 0.107
- area with substrate ENLYFQT: 0.0641
- area with substrate ENLYFQW: 0.0599

Variant: MGESLFKGPRDYNPISSSICHLTNESDGHTTSLYGIGFGPFIITNKHLFRRNNGTLVVQSLHGVFKVIDTTTLQQHLVDGRDMIIIRMPKDFPPFPQKLKFREPQREERICLVTTNFQTKSMSSMVSDTSCTFPSGDGIFWKHWIQTKDGQCGSPLVSTRDGFIVGIHSASNFTNTNNYFTSVPKNFMELLTNQEAQQWVSGWRLNADSVLWGGHKVFMVKPEEPFQPVKEATQL [K68I]
- area with substrate ENLYFQA: 0.0981
- area with substrate ENLYFQC: 0.109
- area with substrate ENLYFQD: 0.0675
- area with substrate ENLYFQG: 0.0888
- area with substrate ENLYFQH: 0.0695
- area with substrate ENLYFQI: 0.0585
- area with substrate ENLYFQK: 0.062
- area with substrate ENLYFQL: 0.0661
- area with substrate ENLYFQM: 0.0944
- area with substrate ENLYFQN: 0.065
- area with substrate ENLYFQP: 0.0607
- area with substrate ENLYFQQ: 0.0705
- area with substrate ENLYFQR: 0.054
- area with substrate ENLYFQS: 0.0959
- area with substrate ENLYFQT: 0.0591
- area with substrate ENLYFQW: 0.0583
- area with substrate ENLYFQY: 0.0889

Variant: MGESLFKGPRDYNPISSSICHLTNESDGHTTSLYGIGFGPFIITNKHLFRRNNGTLVVQSLHGVFKVKDTTTLQQHLVMGRDMIIIRMPKDFPPFPQKLKFREPQREERICLVTTNFQTKSMSSMVSDTSCTFPSGDGIFWKHWIQTKDGQCGSPLVSTRDGFIVGIHSASNFTNTNNYFTSVPKNFMELLTNQEAQQWVSGWRLNADSVLWGGHKVFMVKPEEPFQPVKEATQL [D79M]
- area with substrate ENLYFQA: 0.0824
- area with substrate ENLYFQC: 0.102
- area with substrate ENLYFQD: 0.0634
- area with substrate ENLYFQG: 0.0808
- area with substrate ENLYFQI: 0.058
- area with substrate ENLYFQL: 0.0519
- area with substrate ENLYFQM: 0.0787
- area with substrate ENLYFQN: 0.0738
- area with substrate ENLYFQP: 0.067
- area with substrate ENLYFQQ: 0.0756
- area with substrate ENLYFQR: 0.0587
- area with substrate ENLYFQS: 0.0936
- area with substrate ENLYFQT: 0.0707
- area with substrate ENLYFQV: 0.0635
- area with substrate ENLYFQW: 0.067

Variant: MGESLFKGPRDYNPISSSICHLTNESDGHTTSLYGIGFGPFIITNKHLFRRNNGTLVVQSLHGVFKVKDTTTLQQHLVKGRDMIIIRMPKDFPPFPQKLKFREPQREERICLVTTNFQTKSMSSMVSDTSCTFPSGDGIFWKHWIQTKDGQCGSPLVSTRDGFIVGIHSASNFTNTNNYFTSVPKNFMELLTNQEAQQWVSGWRLNADSVLWGGHKVFMVKPEEPFQPVKEATQL [D79K]
- area with substrate ENLYFQA: 0.0839
- area with substrate ENLYFQD: 0.0709
- area with substrate ENLYFQE: 0.0638
- area with substrate ENLYFQH: 0.071
- area with substrate ENLYFQI: 0.0547
- area with substrate ENLYFQK: 0.0558
- area with substrate ENLYFQL: 0.0634
- area with substrate ENLYFQM: 0.0734
- area with substrate ENLYFQN: 0.0956
- area with substrate ENLYFQR: 0.0598
- area with substrate ENLYFQS: 0.0904
- area with substrate ENLYFQT: 0.0589
- area with substrate ENLYFQW: 0.0746
- area with substrate ENLYFQY: 0.0473

Variant: MGESLFKGPRDYNPISSSICHLTNESDGHTTSLYGIGFGPFIITNKHLFRRNNGTLVVQSLHGVFKVKDTTTLQQHLVSGRDMIIIRMPKDFPPFPQKLKFREPQREERICLVTTNFQTKSMSSMVSDTSCTFPSGDGIFWKHWIQTKDGQCGSPLVSTRDGFIVGIHSASNFTNTNNYFTSVPKNFMELLTNQEAQQWVSGWRLNADSVLWGGHKVFMVKPEEPFQPVKEATQL [D79S]
- area with substrate ENLYFQA: 0.101
- area with substrate ENLYFQC: 0.074
- area with substrate ENLYFQF: 0.0936
- area with substrate ENLYFQG: 0.0952
- area with substrate ENLYFQH: 0.0805
- area with substrate ENLYFQI: 0.0537
- area with substrate ENLYFQK: 0.0714
- area with substrate ENLYFQL: 0.0711
- area with substrate ENLYFQM: 0.0812
- area with substrate ENLYFQN: 0.0645
- area with substrate ENLYFQP: 0.069
- area with substrate ENLYFQR: 0.0463
- area with substrate ENLYFQS: 0.0963
- area with substrate ENLYFQT: 0.0661
- area with substrate ENLYFQV: 0.0521
- area with substrate ENLYFQW: 0.0742

Variant: MGESLFKGPRDYNPISSSICHLTNESDGHTTSLYGIGFGPFIITNKHLFRRNNGTLVVQSLHGVFKVKDTTTLQQHLVFGRDMIIIRMPKDFPPFPQKLKFREPQREERICLVTTNFQTKSMSSMVSDTSCTFPSGDGIFWKHWIQTKDGQCGSPLVSTRDGFIVGIHSASNFTNTNNYFTSVPKNFMELLTNQEAQQWVSGWRLNADSVLWGGHKVFMVKPEEPFQPVKEATQL [D79F]
- area with substrate ENLYFQA: 0.0869
- area with substrate ENLYFQC: 0.106
- area with substrate ENLYFQD: 0.0705
- area with substrate ENLYFQE: 0.0714
- area with substrate ENLYFQF: 0.0752
- area with substrate ENLYFQG: 0.0848
- area with substrate ENLYFQI: 0.0588
- area with substrate ENLYFQK: 0.0379
- area with substrate ENLYFQL: 0.0584
- area with substrate ENLYFQM: 0.0788
- area with substrate ENLYFQN: 0.0696
- area with substrate ENLYFQP: 0.0346
- area with substrate ENLYFQR: 0.0514
- area with substrate ENLYFQS: 0.0881
- area with substrate ENLYFQT: 0.0449
- area with substrate ENLYFQV: 0.0555
- area with substrate ENLYFQW: 0.0737

Variant: MGESLFKGPRDYNPISSSICHLTNESDGHTTSLYGIGFGPFIITNKHLFRRNNGTLVVQSLHGVFKVKDLTTLQQHLVDGRDMIIIRMPKDFPPFPQKLKFREPQREERICLVTTNFQTKSMSSMVSDTSCTFPSGDGIFWKHWIQTKDGQCGSPLVSTRDGFIVGIHSASNFTNTNNYFTSVPKNFMELLTNQEAQQWVSGWRLNADSVLWGGHKVFMVKPEEPFQPVKEATQL [T70L]
- area with substrate ENLYFQA: 0.0742
- area with substrate ENLYFQC: 0.0752
- area with substrate ENLYFQD: 0.0808
- area with substrate ENLYFQG: 0.0729
- area with substrate ENLYFQK: 0.063
- area with substrate ENLYFQL: 0.0691
- area with substrate ENLYFQM: 0.0501
- area with substrate ENLYFQN: 0.0744
- area with substrate ENLYFQR: 0.0646
- area with substrate ENLYFQS: 0.082
- area with substrate ENLYFQT: 0.064
- area with substrate ENLYFQW: 0.0498
